PubChem BioAssay (Tox21)
Where “and” joins values, the source holds several entries; their conditions need not be identical. Equal entries are not always repeated. The inconclusive results got no clear call from the source; some entries with a clear call stand among them for comparison. For some assays here: Potencies of inconclusive entries are doubtful fits and often do not repeat. A structure can be active in one record and inactive in another. Calls of active or inactive are those of the source. Unless noted, calls come from the whole dose curve; as a rule, active = well fitted curve in the direction sought with a large enough effect in the repeat runs; inconclusive = weak or mixed curves; inactive = no such curve, though single readings can be large; an effect the other way counts as inactive or inconclusive.

Tests used:
[1] = molecular target: Peroxisome proliferator-activated receptor gamma (Homo sapiens) (UniProt P37231); experiment: qHTS assay to identify small molecule antagonists of the peroxisome proliferator-activated receptor gamma (PPARg) signaling pathway (AID 743191; calls by dose curve; note: nearly all actives have a fitted effect of over 30% in size; note: potency is the fitted concentration of half-maximal effect; for ratio activity, negative = inhibition: % is set by controls: 0 for no effect and ±100 for the full control effect); conditions: HEK293H PPARg-UAS-bla, beta-lactamase ratio, antagonist, 17 h; ratio activity, negative = inhibition: at 62.6 µM (top of the series) unless noted
Procedure, shortened: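 GeneBLAzer PPARg UAS-bla HEK293H cells carrying a UAS-driven beta-lactamase reporter were plated at 3000 cells/well, preincubated 5 h at 37C, then given compound for 17 h at 37C; LiveBLAzer B/G FRET substrate was read after 1 h at room temperature.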

[2] = qHTS assay to identify small molecule antagonists of the peroxisome proliferator-activated receptor gamma (PPARg) signaling pathway - cell viability counter screen (AID 743194); conditions: PPARg-bla HEK293H viability, CellTiter-Glo luminescence, 17 h; Potency: co-treated with 50 nM rosiglitazone unless noted; activity change, negative = cytotoxicity: at 62.6 µM (top of the series), co-treated with 50 nM rosiglitazone unless noted; note: nearly all actives have a fitted effect of over 55% in size; note: potency is the fitted concentration of half-maximal effect; for activity change, negative = cytotoxicity: % is set by controls: 0 for no effect and ±100 for the full control effect
Procedure, shortened: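 PPARg-UAS-bla HEK293H cells were plated, rested 5 h at 37 C, then treated with compounds plus rosiglitazone (50 nM final) for 17 h at 37 C; viability was then read by CellTiter-Glo luminescence after 30 min at room temperature.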

[3] = qHTS assay for small molecule agonists of the antioxidant response element (ARE) signaling pathway (AID 743202; active = well fitted activation curve with a large enough effect in the signal ratio in the repeat runs, not every such curve was filed as active; inconclusive = weak or mixed curves, or effect the other way; inactive = no such curve, though single readings can be large or run the other way; the % refers to the signal ratio; note: potency is the fitted concentration of half-maximal effect; for activation: % is set by controls: 0 for no effect and ±100 for the full control effect); conditions: HepG2 ARE-bla reporter, beta-lactamase FRET, 16 h; activation: at 73.3 µM (top of the series) unless noted
Procedure, shortened: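 Read-out: LiveBLAzer B/G FRET substrate fluorescence after 2 h at room temperature, following 16 h compound treatment at 37 C of HepG2 cells carrying an ARE-driven beta-lactamase reporter.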

[4] = qHTS assay for small molecule activators of the heat shock response signaling pathway (AID 743210; active = well fitted activation curve with a large enough effect in the signal ratio in the repeat runs, with a control signal flat, not every such curve was filed as active; inconclusive = weak or mixed curves; the % refers to the signal ratio; note: potency is the fitted concentration of half-maximal effect); conditions: HeLa HSE-bla reporter, beta-lactamase ratio, 5 h; activation: at 62.6 µM (top of the series)
Procedure, shortened: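 HSE-bla HeLa cells (beta-lactamase reporter under heat shock response elements) were exposed to compounds for 5 h at 37 C, then loaded with LiveBLAzer B/G FRET substrate for 2.5 h at room temperature before fluorescence reading.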

[5] = molecular target: Peroxisome proliferator-activated receptor delta (Homo sapiens) (UniProt Q03181); experiment: qHTS assay to identify small molecule agonists of the peroxisome proliferator-activated receptor delta (PPARd) signaling pathway (AID 743212; calls by dose curve; note: % is set by controls: 0 for no effect and ±100 for the full control effect); conditions: HEK293H PPARd-UAS-bla, beta-lactamase FRET ratio, 17 h; activation: at 62.6 µM (top of the series) unless noted
Procedure, shortened: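 GeneBLAzer PPARd UAS-bla HEK293H cells (beta-lactamase reporter under UAS control), plated and rested 5 h at 37 C, then exposed to compounds in DMSO at 37 C; LiveBLAzer B/G FRET substrate added, 2 h room temperature, fluorescence read.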

[6] = qHTS assay to identify small molecule antagonists of the peroxisome proliferator-activated receptor delta (PPARd) signaling pathway - cell viability counter screen (AID 743213); conditions: PPARd-bla HEK293H viability, CellTiter-Glo luminescence, 17 h; viability change, negative = cytotoxic: at 62 µM (top of the series) unless noted; note: potency is the fitted concentration of half-maximal effect; nearly all actives have a fitted effect of over 50% in size
Procedure, shortened: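 Luminescence from CellTiter-Glo, added after the bla read and incubated 30 min at room temperature, gives viability of HEK293H PPARd-bla cells exposed to compounds for 17 h at 37 C with 300 nM L165041.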

[7] = molecular target: Peroxisome proliferator-activated receptor delta (Homo sapiens) (UniProt Q03181); experiment: qHTS assay to identify small molecule antagonists of the peroxisome proliferator-activated receptor delta (PPARd) signaling pathway (AID 743215; active = well fitted inhibition curve with a large enough effect in the signal ratio in the repeat runs, not every such curve was filed as active; inconclusive = weak or mixed curves, or effect the other way; inactive = no such curve, though single readings can be large or run the other way; the % refers to the signal ratio;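 note: cells stimulated with agonist L165041 at 300 nM final during compound exposure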; note: potency is the fitted concentration of half-maximal effect); conditions: HEK293H PPARd-UAS-bla, beta-lactamase FRET ratio, antagonist, 17 h; ratio activity, negative = inhibition: at 62 µM (top of the series) unless noted
Procedure, shortened: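 Antagonist-mode beta-lactamase reporter screen: HEK293H cells with UAS-bla under PPARd control, stimulated by 300 nM L165041 (final) alongside test compound for 17 h at 37 C, then FRET fluorescence after 2 h substrate incubation.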

[8] = molecular target: Bile acid receptor (Homo sapiens) (UniProt Q96RI1); experiment: qHTS assay to identify small molecule antagonists of the farnesoid-X-receptor (FXR) signaling pathway (AID 743217; active = well fitted inhibition curve with a large enough effect in the signal ratio in the repeat runs, not every such curve was filed as active; inconclusive = weak or mixed curves, or effect the other way; inactive = no such curve, though single readings can be large or run the other way; the % refers to the signal ratio; note: potency is the fitted concentration of half-maximal effect); conditions: HEK293T FXR-UAS-bla, beta-lactamase ratio, CDCA-stimulated, 16 h; activity change, negative = inhibition: at 62.6 µM (top of the series) unless noted
Procedure, shortened: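 Beta-lactamase reporter under UAS control in HEK 293T cells; compound exposure 16 h at 37 °C in the presence of chenodeoxycholic acid (50 uM final); signal from B/G FRET substrate after 2 h at room temperature.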

[9] = molecular target: Bile acid receptor (Homo sapiens) (UniProt Q96RI1); experiment: qHTS assay to identify small molecule agonists of the farnesoid-X-receptor (FXR) signaling pathway (AID 743220; active = well fitted activation curve with a large enough effect in the signal ratio in the repeat runs, not every such curve was filed as active; inconclusive = weak or mixed curves, or effect the other way; the % refers to the signal ratio; note: potency is the fitted concentration of half-maximal effect); conditions: HEK293T FXR-UAS-bla, beta-lactamase FRET ratio, 16 h; activation: at 62.6 µM (top of the series) unless noted
Procedure, shortened: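 Beta-lactamase reporter under UAS control in GeneBLAzer FXR HEK 293T cells (5000/well) measured with LiveBLAzer FRET substrate after 2 h at room temperature. Compound exposure lasted 16 h at 37C.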

[10] = qHTS assay to identify small molecule antagonists of the farnesoid-X-receptor (FXR) signaling pathway - cell viability counter screen (AID 743221; active = well fitted cell-killing curve with a large enough effect in the repeat runs, not every such curve was filed as active; inconclusive = weak or mixed curves, or effect the other way; inactive = no such curve, though single readings can be large or run the other way; note: potency is the fitted concentration of half-maximal effect; nearly all actives have a fitted effect of over 50% in size); conditions: FXR-bla HEK293T viability, CellTiter-Glo luminescence, 16 h; activity change, negative = cytotoxicity: at 62.6 µM (top of the series) unless noted
Procedure, shortened: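 Multiplexed counter screen: viability of FXR-bla HEK 293T cells under agonist stimulation by chenodeoxycholic acid (50 uM, final) and test compound for 16 h at 37 C, measured by CellTiter-Glo luminescence in the reporter wells.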

[11] = molecular target: Vitamin D3 receptor (Homo sapiens) (UniProt P11473); experiment: qHTS assay to identify small molecule agonists of the vitamin D receptor (VDR) signaling pathway (AID 743222; calls by dose curve; note: potency is the fitted concentration of half-maximal effect); conditions: HEK293T VDR-UAS-bla, beta-lactamase FRET ratio, 16 h; activation: at 63.5 µM (top of the series) unless noted
Procedure, shortened: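 Agonist activity measured in VDR-bla reporter cells. Exposure 16 h, 37C, 5% CO2; detection by B/G FRET substrate, 2 h RT.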

[12] = molecular target: Vitamin D3 receptor (Homo sapiens) (UniProt P11473); experiment: qHTS assay to identify small molecule antagonists of the vitamin D receptor (VDR) signaling pathway (AID 743223; active = well fitted inhibition curve with a large enough effect in the signal ratio in the repeat runs, not every such curve was filed as active; inconclusive = weak or mixed curves, or effect the other way; inactive = no such curve, though single readings can be large or run the other way; the % refers to the signal ratio; note: potency is the fitted concentration of half-maximal effect); conditions: VDR-UAS-bla HEK293T, beta-lactamase FRET ratio, 16 h; activity change, negative = inhibition: at 61 µM (top of the series) unless noted
Procedure, shortened: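 Cells carrying a VDR-driven beta-lactamase reporter (VDR-bla) were co-treated with compound and 3 nM final 1alpha,25-dihydroxyvitamin D3 for 16 h at 37C; reporter activity was measured as FRET substrate fluorescence after 2 h at room temperature.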

[13] = qHTS assay to identify small molecule agonists of the vitamin D receptor (VDR) signaling pathway - cell viability counter screen (AID 743224); note: potency is the fitted concentration of half-maximal effect; nearly all actives have a fitted effect of over 50% in size
Procedure, shortened: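 VDR-bla cell line, quantitative HTS format; 16 h compound incubation (37C, 5% CO2); ATP-based CellTiter-Glo luminescence measured in the reporter assay wells.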

[14] = qHTS assay to identify small molecule antagonists of the vitamin D receptor (VDR) signaling pathway - cell viability counter screen (AID 743225); conditions: VDR-bla HEK293T viability, CellTiter-Glo luminescence, 16 h; viability change, negative = cytotoxic: at 61 µM (top of the series) unless noted; note: potency is the fitted concentration of half-maximal effect; nearly all actives have a fitted effect of over 50% in size
Procedure, shortened: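 HEK293T VDR-bla; cpd + 1a,25-(OH)2D3 3 nM final, 16 h 37C/5% CO2; B/G FRET substrate 2 h RT; then CellTiter-Glo 30 min RT, luminescence.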

[15] = qHTS assay to identify small molecule agonists of the NFkB signaling pathway - cell viability counter screen (AID 1159515; calls by dose curve; note: nearly all actives have a fitted effect of over 55% in size; note: potency is the fitted concentration of half-maximal effect)
Procedure, shortened: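 Viability in NFkB-bla ME-180 cells was measured by CellTiter-Glo luminescence, 30 min room temperature, in wells already treated 5 hr with compounds and read for reporter FRET.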

[16] = qHTS assay to identify small molecule agonists of the endoplasmic reticulum stress response signaling pathway (AID 1159516; active = well fitted activation curve with a large enough effect in the signal ratio in the repeat runs, not every such curve was filed as active; inconclusive = weak or mixed curves, or effect the other way; the % refers to the signal ratio; note: potency is the fitted concentration of half-maximal effect); conditions: ESRE-bla HeLa, ER stress beta-lactamase reporter, 5 h; activation: at 61 µM (top of the series) unless noted
Procedure, shortened: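 ER stress element reporter (bla) in HeLa. 1,500 cells/well, overnight attachment; 5 hr compound; 2 hr RT substrate; dual-emission fluorescence.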

[17] = qHTS assay for small molecule activators of the heat shock response signaling pathway - cell viability counter screen (AID 743209); conditions: HSE-bla HeLa viability, CellTiter-Glo luminescence, 5 h; activity change, negative = cytotoxicity: at 62.6 µM (top of the series) unless noted
Procedure, shortened: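 Quantitative HTS format, Tox21 10K library. HeLa cells carrying an HSE-driven beta-lactamase reporter were treated 5 h at 37 C, then assessed for viability by CellTiter-Glo luminescence.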

[18] = qHTS assay to identify small molecule agonists of the farnesoid-X-receptor (FXR) signaling pathway - cell viability counter screen (AID 743218); conditions: FXR-bla HEK293T viability, CellTiter-Glo luminescence, 16 h; viability change, negative = cytotoxic: at 62.6 µM (top of the series) unless noted; note: potency is the fitted concentration of half-maximal effect; nearly all actives have a fitted effect of over 45% in size
Procedure, shortened: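 In GeneBLAzer FXR-UAS-bla HEK 293T cells, compounds act for 16 h at 37 C. Cell viability is then scored in the reporter wells by CellTiter-Glo, 30 min at RT, luminescence.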

[19] = qHTS assay for small molecule agonists of the antioxidant response element (ARE) signaling pathway - cell viability counter screen (AID 743203; calls by dose curve; note: potency is the fitted concentration of half-maximal effect; nearly all actives have a fitted effect of over 55% in size)
Procedure, shortened: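 Cells (ARE-bla HepG2, 2,000/well) receive DMSO-dissolved compounds after a 5 hrs rest. Plates incubate 16 hrs at 37C/5% CO2. CellTiter-Glo luminescence is then recorded after 30 min at room temperature.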
Tags give direction and shape of the fitted curve or compound fluorescence and quenching.

Chain of UniProt P11473 (P11473 whole entry, looked up): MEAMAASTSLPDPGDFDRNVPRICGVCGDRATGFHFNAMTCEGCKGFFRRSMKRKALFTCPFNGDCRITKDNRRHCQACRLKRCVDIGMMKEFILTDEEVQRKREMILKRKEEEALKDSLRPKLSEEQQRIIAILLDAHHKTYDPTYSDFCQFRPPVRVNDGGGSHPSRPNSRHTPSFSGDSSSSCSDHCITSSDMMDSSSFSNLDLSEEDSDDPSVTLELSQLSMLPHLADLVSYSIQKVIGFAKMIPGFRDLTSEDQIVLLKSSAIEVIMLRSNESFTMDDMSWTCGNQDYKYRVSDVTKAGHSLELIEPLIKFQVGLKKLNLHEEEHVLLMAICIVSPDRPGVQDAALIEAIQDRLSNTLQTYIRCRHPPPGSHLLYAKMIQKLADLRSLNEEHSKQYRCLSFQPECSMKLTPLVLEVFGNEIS
Chain of UniProt Q03181 (Q03181 whole entry, looked up): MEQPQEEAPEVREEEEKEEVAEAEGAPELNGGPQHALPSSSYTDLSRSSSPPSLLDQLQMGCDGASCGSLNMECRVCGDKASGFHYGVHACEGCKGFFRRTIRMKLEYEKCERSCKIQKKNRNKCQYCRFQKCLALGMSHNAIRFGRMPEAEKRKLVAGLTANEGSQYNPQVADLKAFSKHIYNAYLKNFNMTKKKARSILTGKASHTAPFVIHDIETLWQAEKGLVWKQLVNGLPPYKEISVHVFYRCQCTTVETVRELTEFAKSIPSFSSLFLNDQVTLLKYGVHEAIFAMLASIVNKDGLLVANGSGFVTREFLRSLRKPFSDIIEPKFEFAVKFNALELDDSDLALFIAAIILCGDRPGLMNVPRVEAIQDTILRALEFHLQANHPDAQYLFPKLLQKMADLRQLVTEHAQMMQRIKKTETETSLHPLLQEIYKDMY
Chain of UniProt P37231 (P37231 whole entry, looked up): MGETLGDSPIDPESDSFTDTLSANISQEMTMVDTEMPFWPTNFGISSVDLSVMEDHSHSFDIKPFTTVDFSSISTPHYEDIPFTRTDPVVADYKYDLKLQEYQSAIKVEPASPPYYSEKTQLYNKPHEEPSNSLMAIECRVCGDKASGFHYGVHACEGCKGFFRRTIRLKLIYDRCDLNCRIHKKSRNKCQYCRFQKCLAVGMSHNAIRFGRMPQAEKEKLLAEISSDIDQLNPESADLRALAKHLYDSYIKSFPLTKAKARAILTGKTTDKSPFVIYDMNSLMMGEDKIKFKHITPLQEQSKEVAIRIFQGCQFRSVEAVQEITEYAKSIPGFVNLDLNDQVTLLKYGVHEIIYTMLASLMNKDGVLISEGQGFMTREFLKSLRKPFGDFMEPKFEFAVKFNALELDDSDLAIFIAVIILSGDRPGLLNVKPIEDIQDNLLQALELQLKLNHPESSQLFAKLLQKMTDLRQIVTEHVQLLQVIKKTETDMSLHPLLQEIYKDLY
Chain of UniProt Q96RI1 (Q96RI1 whole entry, looked up): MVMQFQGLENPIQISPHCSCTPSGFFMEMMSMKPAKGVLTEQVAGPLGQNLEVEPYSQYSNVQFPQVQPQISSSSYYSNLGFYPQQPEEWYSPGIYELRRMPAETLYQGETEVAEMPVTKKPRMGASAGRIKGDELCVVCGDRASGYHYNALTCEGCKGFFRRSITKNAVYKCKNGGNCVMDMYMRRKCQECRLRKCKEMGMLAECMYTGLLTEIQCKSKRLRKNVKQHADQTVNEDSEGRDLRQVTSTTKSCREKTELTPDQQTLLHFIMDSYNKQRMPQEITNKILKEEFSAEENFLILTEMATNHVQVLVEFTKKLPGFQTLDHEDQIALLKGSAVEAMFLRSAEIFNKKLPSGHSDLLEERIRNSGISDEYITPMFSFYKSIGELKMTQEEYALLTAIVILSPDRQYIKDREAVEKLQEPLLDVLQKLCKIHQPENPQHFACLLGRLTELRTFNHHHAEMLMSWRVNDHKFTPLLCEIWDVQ

Nc1ccc(N=Nc2ccccc2)cc1
inconclusive: Potency [1] 3.89 µM [inhibitor, full curve] | Potency [2] 0.0039 µM [cytotoxic, full curve, poor fit] | Potency [3] 7.7 µM | Potency [4] 30.8 µM [cytotoxic] | activation [5] 6.76% [phenotype inactive] | Potency [6] 1.95 µM [cytotoxic, full curve] | Potency [7] 3.47 µM [inhibitor, full curve] | Potency [8] 61.6 µM [inhibitor, single point] | Potency [9] 19.3 µM [cytotoxic, partial curve] | Potency [10] 30.6 µM [phenotype inactive, partial curve, poor fit] | Potency [11] 8.71 µM [inhibitor, full curve] | Potency [12] 2.45 µM [rising, full curve] | Potency [13] 27.5 µM [cytotoxic, partial curve] | Potency [14] 11 µM [cytotoxic, full curve] | Potency [16] 54.9 µM [cytotoxic]
inactive: Potency [15]

COc1cc(N)c(Cl)cc1C(=O)NC1CN2CCC1CC2 (centres undefined)
inactive: Potency [3]
inconclusive: ratio activity, negative = inhibition [1] 5.87% | Potency [17] 0.298 µM [cytotoxic, single point] | Potency [15] 23.9 µM [cytotoxic, partial curve] | Potency [16] 2.39 µM [falling, partial curve, poor fit]

C=CC(=O)NCNC(=O)C=C
inconclusive: Potency [1] 24.5 µM [activator, partial curve] | activity change, negative = cytotoxicity [2] 36.1% | Potency [17] 0.616 µM [rising, partial curve] | Potency [6] 0.776 µM [cytotoxic, partial curve, poor fit] | Potency [7] 27.3 µM [fluorescent, single point] | Potency [18] 0.0195 µM [rising, full curve, poor fit] | Potency [12] 0.0155 µM [activator, full curve] | Potency [14] 0.776 µM [cytotoxic, full curve, poor fit] | Potency [15] 54.9 µM [rising, partial curve, poor fit] | activation [16] 0.841%

CC[n+]1ccccc1
inactive: Potency [2]
inactive and 2.71 µM (active): Potency [3]
inconclusive: Potency [1] 54.5 µM [inhibitor] | Potency [19] 0.0077 µM [rising, full curve, poor fit] | Potency [18] 1.09 µM [rising, partial curve, poor fit] | Potency [13] 21.7 µM [cytotoxic, partial curve] | Potency [14] 0.0016 µM [cytotoxic] | Potency [15] 54.7 µM [rising, partial curve, poor fit] | Potency [16] 21.8 µM [falling, partial curve, poor fit]

CC1COC(Cn2cncn2)(c2ccc(Oc3ccc(Cl)cc3)cc2Cl)O1 (centres undefined)
active: Potency [2] 49 µM | Potency [3] 1.93 µM | Potency [7] 49 µM | Potency [18] 49 µM | Potency [14] 49 µM
inconclusive: Potency [1] 19.5 µM | Potency [6] 38.9 µM [cytotoxic, partial curve, poor fit] | Potency [8] 54.9 µM | Potency [10] 54.9 µM [falling, single point] | Potency [11] 61.6 µM [rising, single point] | Potency [12] 61.6 µM | Potency [15] 54.9 µM [cytotoxic, partial curve, poor fit] | activation [16] 10.3%

Clc1ccc(CSC(Cn2ccnc2)c2ccc(Cl)cc2Cl)cc1 (centres undefined)
active: Potency [2] 29.8 µM | Potency [17] 29.8 µM | Potency [6] 33.5 µM | Potency [10] 23.7 µM | Potency [13] 29.8 µM
inconclusive: ratio activity, negative = inhibition [1] -8.16% | Potency [3] 26.6 µM [falling, partial curve] | Potency [4] 16.2 µM | activation [5] 22.9% | ratio activity, negative = inhibition [7] -49.4% [inhibitor] | Potency [18] 29.8 µM [cytotoxic] | activity change, negative = inhibition [12] -36.4% | Potency [14] 26.8 µM [cytotoxic] | Potency [15] 26.8 µM [cytotoxic, single point] | Potency [16] 10.7 µM [cytotoxic, partial curve]

CCCCCCC#N
inconclusive: Potency [2] 18.9 µM [cytotoxic, partial curve, poor fit] | Potency [17] 0.946 µM [rising, full curve] | Potency [15] 59.7 µM [rising, partial curve, poor fit] | activation [16] -0.369%
inactive: Potency [1] | Potency [3]
